# Assay results as given in ChEMBL document CHEMBL5724801, “EUbOPEN Chemogenomics Library - Multiplex” (2024).
# For part of its entries the source gives two or more results. They are shown here; other results are not. There may be further records. Results that share an entry are repeats (runs, samples, wells, individuals or studies).
# Experiments:
# Assay type in all cases: toxicity, cell-based
# Fibroblast = assay: Multiplex assay against human fibroblast
# Outline: (§1)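 Cells stained live at seeding with Hoechst33342, BioTracker Green Microtubule Cytoskeleton Dye, MitoTracker Red and Annexin V Alexa Fluor 680 were imaged on a CQ1 microscope at 37°C and 5% CO2 after compound addition. Their classification by CellPathfinder machine-learning gating ran from Hoechst high-intensity objects versus normal cells, to healthy, pyknosed or fragmented nuclei among normal cells, to mitotic or apoptotic among pyknosed cells. Tubulin, mitochondrial-mass and membrane-permeability phenotypes are per cents of healthy-nucleus cells.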
# U2OS = assay: Multiplex assay against U2OS; conditions: human; outline: as §1
# HEK-293T = assay: Multiplex assay against HEK293T; conditions: human; outline: as §1
# [1] = 12 h, 10 µM, compound concentration 10 uM
# [2] = 48 h, 1 µM, compound concentration 1 uM
# [3] = 48 h, 10 µM, compound concentration 10 uM
# [4] = 12 h, 1 µM, compound concentration 1 uM
# [5] = 24 h, 1 µM, compound concentration 1 uM
# [6] = 24 h, 10 µM, compound concentration 10 uM
smiles,measurement,setting,value
c1ccc2nc(N3CCNCC3)ccc2c1 [QUIPAZINE],Population Apoptotic (%),Fibroblast; [1],5.26% and 25.71%
same,Population Mitochondria Different-Phenotype (%),Fibroblast; [1],2.78% and 13.73%
same,Population Mitochondria Different-Phenotype (%),Fibroblast; [2],12.09% and 1.54%
same,Population Tubulin-Different-Phenotype (%),Fibroblast; [3],8.81% and 27.14%
same,Population Mitochondria Different-Phenotype (%),U2OS; [4],0.55% and 10.69%
same,Total Cell Count,U2OS; [2],1135 and 353
same,Population Tubulin-Different-Phenotype (%),HEK-293T; [4],2.07% and 25.93%
same,Population Healthy Nuclei (%),HEK-293T; [1],52.04% and 16.54%
same,Population Tubulin-Different-Phenotype (%),HEK-293T; [1],7.19% and 28.57%
same,Total Cell Count,HEK-293T; [5],610 and 172
same,Total Cell Count,HEK-293T; [6],492 and 131
same,Population Apoptotic (%),HEK-293T; [2],4.19% and 18.84%
same,Population Tubulin-Different-Phenotype (%),HEK-293T; [2],1.59% and 35.38%
same,Total Cell Count,HEK-293T; [2],1358 and 200
same,Population Pyknosed Nuclei (%),HEK-293T; [3],10% and 34.04%
same,Population Tubulin-Different-Phenotype (%),HEK-293T; [3],1.88% and 49.45%
same,Total Cell Count,HEK-293T; [3],1100 and 141
COCCn1c(C)c(C)s/c1=N\C(=O)C1C(C)(C)C1(C)C,Population Membrane Permeable-Phenotype (%),Fibroblast; [1],1% and 13%
same,Population Mitotic Cells (%),U2OS; [3],18% and 4%
same,Population Fragmented Nuclei (%),HEK-293T; [1],33% and 8%
same,Total Cell Count,HEK-293T; [1],80 and 315
same,Total Cell Count,HEK-293T; [6],101 and 376
O=C(CCCc1ccccc1)Nc1nc2ccccc2c(=O)s1,Population Membrane Permeable-Phenotype (%),Fibroblast; [1],1% and 13%
same,Population Mitochondria Different-Phenotype (%),Fibroblast; [1],4% and 17%
same,Population Mitochondria Different-Phenotype (%),Fibroblast; [6],3% and 14%
same,Population Tubulin-Different-Phenotype (%),Fibroblast; [6],15% and 62%
same,Population Mitochondria Different-Phenotype (%),Fibroblast; [3],2% and 14%
same,Population Mitotic Cells (%),U2OS; [4],7% and 44%
same,Population Mitotic Cells (%),U2OS; [1],28% and 0%
same,Population Hoechst High Intensity Objects (%),HEK-293T; [6],6% and 24%
same,Population Apoptotic (%),HEK-293T; [3],22% and 68%
COc1ccc2nc3ccc(OC)cc3c(SCCCN)c2c1.Cl,Population Apoptotic (%),Fibroblast; [6],12.5% and 50%
same,Population Apoptotic (%),Fibroblast; [2],28.57% and 0%
same,Population Mitochondria Different-Phenotype (%),Fibroblast; [2],13.69% and 3.11%
same,Population Membrane Permeable-Phenotype (%),U2OS; [1],8.06% and 34.19%
same,Population Mitochondria Different-Phenotype (%),U2OS; [1],3.3% and 64.96%
same,Population Mitotic Cells (%),U2OS; [1],50% and 0%
same,Population Healthy Nuclei (%),U2OS; [6],24.34% and 7.22%
same,Population Membrane Permeable-Phenotype (%),U2OS; [6],1.32% and 14.81%
same,Population Mitochondria Different-Phenotype (%),U2OS; [6],1.66% and 43.52%
same,Population Healthy Nuclei (%),U2OS; [3],28.2% and 5.08%
same,Population Membrane Permeable-Phenotype (%),U2OS; [3],3.3% and 13.58%
same,Population Mitochondria Different-Phenotype (%),U2OS; [3],0.37% and 33.33%
same,Population Healthy Nuclei (%),HEK-293T; [4],52.37% and 9.62%
same,Population Mitochondria Different-Phenotype (%),HEK-293T; [4],35.64% and 0%
same,Total Cell Count,HEK-293T; [5],550 and 164
same,Population Apoptotic (%),HEK-293T; [2],4.83% and 25%
same,Population Pyknosed Nuclei (%),HEK-293T; [2],11.42% and 42.7%
same,Population Tubulin-Different-Phenotype (%),HEK-293T; [2],2.76% and 46.74%
same,Total Cell Count,HEK-293T; [2],1271 and 179
same,Population Healthy Nuclei (%),HEK-293T; [3],19.23% and 3.1%
same,Population Tubulin-Different-Phenotype (%),HEK-293T; [3],3.46% and 60%
